Laboratory results from ChEMBL document CHEMBL3301361, “Experimental in vitro DMPK and physicochemical data on a set of publicly disclosed compounds”.
Values after ≈ are worked out from the molar mass of the structure shown.

Assay: physchem
Conditions: octan-1-ol/water, pH 7.4

Point of comparison: `CCNC(=O)C[C@H]1N=C(c2ccc(Cl)cc2)c2cc(OC)ccc2-n2c(C)nnc21`, logD 2.42. Against it:
- CCOC(=O)c1ccc(CCN2CCN(c3ccc(C)nn3)CC2)cc1 — within 0.2 log units, 2.58
- O=C(NC1CCS(=O)(=O)C1)c1ccc(Oc2ccc(C#C[C@]3(O)CN4CCC3CC4)cc2)cc1 (some centres undefined) — lower, 1.64
- O=C(O)c1cc2cc(C(F)(F)F)ccc2n1Cc1ccc(Cl)c(Cl)c1 — higher, 3.07
- C[C@@H]1CN(Cc2ccc(F)cc2)CCN1C(=O)COc1ccc(Cl)cc1NC(N)=O [BX 471 FREE BASE] — lower, 1.91
- CCNC(=O)C[C@@H]1N=C(c2ccc(Cl)cc2)c2cc(OC)ccc2-n2c(C)nnc21 [MOLIBRESIB] — within 0.2 log units, 2.46

Same assay, conditions: octan-1-ol/water, pH 7.4, LogD7.4

Point of comparison: `Cc1ccc(NC(=O)c2cccc(N(C)S(C)(=O)=O)c2)cc1NC(=O)c1ccc2ncccc2c1`, logD 2.8. Against it:
- Cc1cc(C)cc(-c2[nH]c3ccccc3c2CCNCCCCc2ccncc2)c1 — higher, 3.3
- Nc1ncc(-c2cnn(C3CCOCC3)c2)cc1-c1nc2ccccc2o1 — higher, 4
- Cc1onc(C(N)=O)c1C(=O)Nc1nccs1 — lower, 1.63
- O=C(O)c1cc2cc([N+](=O)[O-])ccc2n1Cc1ccc(Cl)c(Cl)c1 — lower, 1.79
- N#Cc1cnn(-c2ccccc2)c1NC(=O)c1ccccc1F — lower, 1.7
- CC(O)(C(=O)Nc1ccc2c(c1)-c1ccccc1S2(=O)=O)C(F)(F)F (centres undefined) — higher, 3
- CCn1c2ccccc2c2cc(NC(=O)C(C)C)ccc21 — higher, 4.2
- O=C(CN1CCOCC1)Nc1ccc(-c2cccc3c(=O)cc(N4CCOCC4)oc23)cc1-c1ccccc1 — higher, 3.4
- c1ccc(N2CC3COc4ccccc4C3=N2)cc1 (centres undefined) — higher, 4.28
- CCOc1ccc2oc(C(=O)NC(CCSC)c3nc4ncccc4[nH]3)c(C)c2c1 (centres undefined) — higher, 4.23
- CCN(C(=O)Cc1ccc(S(N)(=O)=O)cc1)C1CCN(CCC(c2ccccc2)c2ccccc2)CC1 — lower, 2.4
- CN(C(=O)Cc1ccc(S(N)(=O)=O)cc1)C1CCN(CCC(c2ccccc2)c2ccccc2)CC1 — lower, 2.3
- O=C(Nc1cccc(O)c1)c1ccc(OCCCN2CCCC2)cc1OCc1cccc(F)c1 — higher, 3.15
- CCOC(=O)c1ccc(OCCC2CCN(c3ccc(C)nn3)CC2)nc1 — higher, 3.76
- CCOC(=O)c1ccc(OCCC2CCN(c3ccc(C)nn3)CC2)cn1 — within 0.2 log units, 2.63
- COc1cc2c(Nc3ccc(Cl)cc3F)ncnc2cc1OC[C@@H]1CCCN(C)C1 — within 0.2 log units, 2.9
- Nc1n[nH]c2ncc3c(c12)CCCCCC3 — lower, 2.54
- O=C(O)c1ccc(NC(=O)c2cc(OCc3ccccc3)cc(OCc3ccccc3)c2)nc1 — within 0.2 log units, 2.7
- CCN(C(=O)Cc1ccc(S(C)(=O)=O)cc1)C1CCN(CCC(c2ccc(F)cc2)c2ccc(F)cc2)CC1 — higher, 3.21
- O=C(N[C@@H](Cc1ccc(OCCCNc2ccccn2)cc1)C(=O)O)c1c(Cl)cccc1Cl — lower, -0.22
- Cc1ccc(NC(=O)c2cscn2)cc1-n1cnc2ccc(N3CCN(C)CC3)cc2c1=O — lower, 2.06
- Oc1cc(-c2ccco2)nc2ccccc12 — lower, 2.21
- N#CCNC(=O)[C@@H]1CCCC[C@H]1C(=O)N1CCc2[nH]c3ccc(F)cc3c2C1 — within 0.2 log units, 2.77
- CN1CCN(S(=O)(=O)c2ccc(-c3cnc(N)c(C(=O)Nc4cnccc4CN4CCCC4)n3)cc2)CC1 — higher, 3.28
- Nc1ccc(C(=O)Nc2cccc(-c3nc(N4CCOCC4)c4oc5ncccc5c4n3)c2)cn1 — higher, 3.44
- CN(C)C(=O)[C@H](Cc1ccccc1)NC(=O)c1cc2ccsc2[nH]1 — higher, 3.1
- COCCC(Oc1ncnc2c1cnn2-c1ccccc1C(F)(F)F)C(=O)Nc1ccc(C)cn1 (centres undefined) — higher, 3.5
- COc1cc(-c2nc(N3CCOCC3)cc(C3(S(C)(=O)=O)CC3)n2)c2cc[nH]c2c1 — lower, 2.4
- O=C(NC1Cc2ccccc2N(C[C@@H](O)CO)C1=O)c1cc2cc(Cl)ccc2[nH]1 (some centres undefined) — higher, 3.4
- Nc1ccccc1NC(=O)c1ccc(-c2ncc(CN3CCCCC3)s2)cc1 — within 0.2 log units, 2.82
- COc1cc(C(=O)O)ccc1Cc1cn(C)c2ccc(NC(=O)CC3CCCC3)cc12 — lower, 2
- CN(C)C(=O)[C@H](Cc1ccccc1)NC(=O)c1cc2ccccc2[nH]1 — higher, 3.4
- O=C(CSc1ccncc1)Nc1ccc(C(=O)c2ccccc2)cc1 — higher, 3.6
- N#Cc1c(C(=O)O)n(Cc2ccc(Cl)c(Cl)c2)c2ccccc12 — lower, 1.26
- NC(=O)c1cc(-c2ccccc2)sc1N — within 0.2 log units, 2.7
- COc1cc2ncnc(Nc3cccc(Cl)c3F)c2cc1OC1CCN(S(C)(=O)=O)CC1 — within 0.2 log units, 2.82
- COc1ccc(C(=O)Nc2c(Cl)cncc2Cl)c2cccnc12 — lower, 2.09
- NC(=O)CN1C(=O)C(NC(=O)c2cc3cc(Cl)sc3[nH]2)Cc2ccccc21 (centres undefined) — higher, 3.22
- O=C(NC1Cc2ccccc2N(CC(CO)CO)C1=O)c1cc2cc(Cl)sc2[nH]1 (centres undefined) — higher, 3.56
- CCNC(=O)c1ccc(CN2CCC(c3ccc(C(=O)Nc4ccccc4N)cc3)CC2)cc1 — lower, 2.24
- CC(C)n1c2ccccc2c2cc(NC(=O)N3CCOCC3)ccc21 — higher, 3.55
- CN(C)CC(O)COc1ccc(Nc2nccc(Nc3ccc(Cl)cc3)n2)cc1 (centres undefined) — lower, 2.6
- CS(=O)(=O)n1c2ccccc2c2cc(NC(=O)N3CCOCC3)ccc21 — within 0.2 log units, 2.7
- NC(=O)c1sc(-c2ccc(Cl)cc2)cc1N — higher, 3.3
- Cc1cc2n[nH]c(=O)n2c2ccccc12 — lower, 2.35
- Cc1csc(NC(=O)c2cc(Sc3nncn3C)ccc2N)n1 — lower, 2.3
- NC(=O)Nc1sc(-c2ccccc2)cc1C(=O)N1CCOCC1 — lower, 2.24
- Cc1ncc(-c2nc(Nc3ccc(C(N)=O)cc3)ncc2F)n1C(C)C — within 0.2 log units, 2.7
- Cc1ncc(-c2ccnc(Nc3ccc(C(=O)N(C)C)c(F)c3)n2)n1C(C)C — within 0.2 log units, 2.74
- COc1cc2ncc(C(N)=O)c(Nc3ccc(F)cc3F)c2cc1NCCN1CCCCC1 — lower, 2.52
- CCn1c(-c2ccnc(Nc3ccc(C(=O)NC)cc3)n2)cnc1C — lower, 2.53
- CNS(=O)(=O)c1ccc(Nc2nccc(-c3cnc4cccnn34)n2)cc1 — the same, 2.8
- C[C@@H](CO)Oc1cc(Oc2ccc(S(C)(=O)=O)cc2)cc(C(=O)Nc2nccs2)c1 — within 0.2 log units, 2.63
- COc1cc2c(cc1OC)C(=O)C(CC1CCN(Cc3ccccc3)CC1)C2 (centres undefined) [DONEPEZIL] — lower, 2.41
- O=C(Nc1ccccc1)c1ccccc1 [N-PHENYLBENZAMIDE] — the same, 2.8
- CS(=O)(=O)c1ccc([C@@H](C[C@H]2CCC(=O)C2)C(=O)Nc2cnccn2)cc1Cl [PIRAGLIATIN] — lower, 1.39
- Nc1nc2ccc(OC(F)(F)F)cc2s1 [RILUZOLE] — higher, 3.34

Assay: physchem
Conditions: pH 7.4 buffer

Point of comparison: `Cc1cc(CNc2nccc(Nc3cc(CCc4ccccc4)[nH]n3)n2)on1`, solubility thermodynamic 26.9 µM (≈ 10.1 µg/mL). Against it:
- COc1cc2cc(-c3ccc(O)cc3O)nc(C)c2cc1OC — 22-fold lower, 1.2 µM (≈ 0.374 µg/mL)
- Cc1ccc(CO)cc1N(c1ccnc(Nc2cc(N3CCOCC3)cc(N3CCOCC3)c2)n1)C(C)C — within 1.5-fold, 32.4 µM (≈ 16.8 µg/mL)
- COC[C@H](C)Oc1cc(Oc2ccc(Cl)cc2)cc(C(=O)Nc2ccc(C(=O)O)cn2)c1 — 29-fold higher, 776 µM (≈ 355 µg/mL)
- CN(C(=O)Cc1ccc(S(=O)(=O)N(C)C)cc1)C1CCN(CCC(c2ccccc2)c2ccccc2)CC1 — 18-fold higher, 490 µM (≈ 261 µg/mL)
- COc1cc(N2CC3CN(CCO)CC(C2)O3)ccc1Nc1ncc(Cl)c(-c2cnc3ccccn23)n1 — 5.3-fold lower, 5.1 µM (≈ 2.66 µg/mL)
- CCOC(=O)c1ccc(OCC2CCN(c3ccc(C)nn3)C2)cc1 (centres undefined) — 6.3-fold higher, 170 µM (≈ 58 µg/mL)
- Nc1nc(Cl)nc(NCc2ccccc2)n1 — within 1.5-fold, 28.2 µM (≈ 6.65 µg/mL)
- CCN(C(=O)Cc1ccc(S(C)(=O)=O)cc1)C1CCN(CCC(c2ccccc2)c2ccc(NC(=O)Cc3ccccc3)cc2)CC1 (centres undefined) — 9.6-fold lower, 2.8 µM (≈ 1.83 µg/mL)
- CCN(C(=O)Cc1ccc(S(C)(=O)=O)cc1)C1CCN(Cc2ccc(C(F)(F)F)cc2)CC1 — 3-fold lower, 8.9 µM (≈ 4.29 µg/mL)
- CN(C(=O)Cc1ccc(-n2cnnn2)cc1)C1CCN(Cc2nc3cc(F)ccc3s2)CC1 — 18-fold lower, 1.5 µM (≈ 0.698 µg/mL)
- O=C(N[C@@H](Cc1ccc(OCCc2ccc3c(n2)NCCO3)cc1)C(=O)O)c1c(Cl)cccc1Cl — 52-fold higher, 1410 µM (≈ 729 µg/mL)
- O=C(Nc1ccc(N2CCOCC2)nc1)c1nnc(Nc2cccc(OCc3cccnc3)c2)o1 — 5.8-fold lower, 4.6 µM (≈ 2.18 µg/mL)
- O=C(Nc1ccc(Cl)c(Cl)c1)N1CCN(C[C@@H]2CCCN(Cc3ccccc3)C2)CC1 — 1.6-fold higher, 42.7 µM (≈ 19.7 µg/mL)
- CC(C)(C)NC(=O)Nc1ccc(-c2c(N)nc(N)nc2COCc2ccccc2)cc1 — 16-fold higher, 427 µM (≈ 179 µg/mL)
- CCCSc1ncccc1C(=O)NC1CCC(F)(F)CC1 — 2.2-fold higher, 60.3 µM (≈ 19 µg/mL)
- Cc1c(C(=O)NC2C3CC4CC(C3)CC2C4)cnn1-c1ccc(C(=O)O)cc1 (centres undefined) — 45-fold higher, 1200 µM (≈ 456 µg/mL)
- O=C(O)c1ccc(-n2ncc(C(=O)NC3C4CC5CC(C4)CC3C5)c2C(F)(F)F)cc1 (centres undefined) — 47-fold higher, 1260 µM (≈ 546 µg/mL)
- O=S(=O)(Nc1ncns1)c1cc(F)c(Oc2ccc(Cl)cc2-c2ccnn2C2CNC2)cc1F — within 1.5-fold, 25.1 µM (≈ 13.2 µg/mL)
- OC1(c2ccc(F)cc2)CCN(c2ccc3nnc(C(F)(F)F)n3n2)CC1 — 17-fold lower, 1.6 µM (≈ 0.61 µg/mL)
- COC1CCN(C(=O)C2CCN(CCc3c(-c4cc(C)cc(C)c4)[nH]c4sc(C(C)(C)C(=O)N5C6CCC5CC6)cc34)CC2)CC1 — within 1.5-fold, 29.5 µM (≈ 19 µg/mL)
- CCC(CC)CNC(=O)c1ccc2c(c1)c(Cc1ccc(C(=O)NS(=O)(=O)c3ccccc3C)cc1OC)cn2C — 3.6-fold higher, 95.5 µM (≈ 55 µg/mL)
- N=C(N)c1cc2c(/C=C/c3ccc4c(c3)OCO4)cccc2s1 — 7.5-fold lower, 3.6 µM (≈ 1.16 µg/mL)
- COc1cc(C(=O)NS(=O)(=O)c2ccccc2C)ccc1Cc1c[nH]c2ccc(NC(=O)CC3CCCC3)cc12 — 9.6-fold lower, 2.8 µM (≈ 1.57 µg/mL)
- C[C@H](CO)Nc1nc(SCc2cccc(F)c2F)nc2[nH]c(=O)c(=O)[nH]c12 — 2.3-fold higher, 61.7 µM (≈ 24.4 µg/mL)
- Cc1ncc(-c2ccnc(Nc3ccc(N4CCN(C(=O)CO)CC4)cc3)n2)n1C(C)C — 5.9-fold higher, 158 µM (≈ 69 µg/mL)
- O=C(CCc1ccccc1)c1ccccc1 — 2.7-fold lower, 9.8 µM (≈ 2.06 µg/mL)
- N#Cc1ccc(-c2ccc(S(=O)(=O)Nc3cccc(N)n3)cc2)cc1 — 21-fold lower, 1.3 µM (≈ 0.456 µg/mL)
- Cc1cc(CNc2ncc(Br)c(Nc3cc(C4CC4)[nH]n3)n2)on1 — 1.6-fold higher, 43.7 µM (≈ 17.1 µg/mL)
- COCCS(=O)(=O)N1CCN(c2ccc(Nc3nccc(-c4cnc(C)n4C(C)C)n3)cc2)CC1 — 1.9-fold lower, 14.1 µM (≈ 7.04 µg/mL)
- Cc1ncc(-c2ccnc(Nc3ccc(S(=O)(=O)CC4CCCO4)cc3)n2)n1C(C)C (centres undefined) — 2.6-fold higher, 69.2 µM (≈ 30.6 µg/mL)
- NCc1ccc(NC(=O)c2cc(Nc3ncccn3)c3cc(/C(N)=N/O)ccc3c2)cc1 — within 1.5-fold, 28.2 µM (≈ 12.1 µg/mL)
- NC(=O)c1ccccc1OCc1ccccc1 — 4.7-fold higher, 126 µM (≈ 28.6 µg/mL)
- Cc1nc2ccccn2c1-c1ccnc(Nc2cccc(Cl)c2)n1 — 4.1-fold lower, 6.5 µM (≈ 2.18 µg/mL)
- CC(C)n1c(=O)n(C)c(=O)c2cn(Cc3cccc4ccccc34)cc21 — within 1.5-fold, 23.4 µM (≈ 8.13 µg/mL)
